Experimental data reported in the supplement of paper PMC9446081.
The campaign covered roughly 39,000 compounds. About 220 (0.56%) showed activity. Some of the results follow.

system: Escherichia coli K-12 BW25113; assay: relative growth (OD600 normalised to plate interquartile mean) (fraction); higher = less growth inhibition, active = 0.2 or less; conditions: 50 µM; LB; incubation time: overnight (16-24 h)
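Also: static incubation at 37 °C against the wild-type strain, values averaged over two biological replicates.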

Q: For `C[C@H](CO)N1C[C@H](C)[C@H](CN(C)S(C)(=O)=O)Oc2c(NC(=O)c3nc4ccccc4s3)cccc2C1=O`, which relative growth is on record?
A: Its relative growth is inactive: 1.01.

Q: With `O=C(C[C@@H]1C=C[C@H](NC(=O)CN2CCOCC2)[C@H](CO)O1)NC1CCC1` as the compound, how does the relative growth read?
A: Its relative growth is inactive: 0.974.

Q: For `CN1CCN(C(=O)C[C@H]2CC[C@H]3[C@@H](COC[C@H](O)CN3Cc3ccc(Oc4ccccc4)cc3)O2)CC1`, which relative growth is on record?
A: The relative growth was inactive: 1.01.

Q: With `C=CCOC(=O)[C@@H]1[C@H]2C(=O)O[C@H](c3ccccc3)[C@H](c3ccccc3)N2[C@H](c2ccc(OCCOC(=O)[C@H]3C[C@H]4C(=O)N5CCC[C@H]5C(=O)N4[C@H]3c3cccc(OCCO)c3)cc2)[C@@]12C(=O)Nc1ccc(I)cc12` as the compound, how does the relative growth read?
A: Its relative growth is inactive: 1.09.

Q: `O=C(C[C@H]1CC=CCC[C@@H](Cc2ccc(F)cc2)C(=O)OC[C@H](Cc2ccccc2)NC1=O)NCCO` was tested. Which relative growth did it give?
A: Its relative growth is inactive: 1.

Q: Which relative growth does the source give for `CC(C)NC(=O)Nc1ccc2c(c1)C(=O)N([C@@H](C)CO)C[C@H](C)[C@H](CN(C)S(=O)(=O)c1cn(C)cn1)OCCCC[C@@H](C)O2` here?
A: The relative growth was inactive: 1.01.

Q: For `C[C@H](CO)N1C[C@H](C)[C@H](CN(C)Cc2ccc(C(F)(F)F)cc2)Oc2c(NS(C)(=O)=O)cccc2C1=O`, which relative growth is on record?
A: Its relative growth is inactive: 1.

Q: Which relative growth does the source give for `COCCNC(=O)C[C@@H]1CC[C@@H]2[C@H](COC[C@@H](O)CN2S(=O)(=O)c2ccccc2C)O1` here?
A: The relative growth was inactive: 0.965.

Q: Which relative growth does the source give for `C[C@H]1CN([C@@H](C)CO)C(=O)c2cccc(NC(=O)C3CCOCC3)c2O[C@H]1CN(C)S(=O)(=O)c1ccc(F)cc1` here?
A: The relative growth was inactive: 1.01.

Q: With `C[C@@H]1CN([C@H](C)CO)C(=O)c2cccc(NC(=O)Nc3ccc4c(c3)OCO4)c2O[C@@H]1CN(C)Cc1ccc(C(=O)Nc2ccccc2N)cc1` as the compound, how does the relative growth read?
A: The relative growth was inactive: 1.02.

Q: For `Cc1ccc(S(N)(=O)=O)c(C)c1`, which relative growth is on record?
A: Its relative growth is inactive: 1.01.

Q: For `C[C@@H]1CN([C@@H](C)CO)C(=O)c2c(c3ccccc3n2C)-c2ccccc2CO[C@@H]1CN(C)Cc1ccc(Cl)c(Cl)c1`, which relative growth is on record?
A: The relative growth was inactive: 1.

Q: How did the relative growth turn out when `CCOc1ccc2ccccc2c1C(=O)NC1C(=O)N2C1SC(C)(C)C2C(=O)[O-].[Na+]` (stereo not given) was run?
A: Its relative growth is inactive: 1.18.

Q: `C[C@H](CO)N1C[C@H](C)[C@H](CN(C)C(=O)Nc2ccccc2)OCCCC[C@H](C)Oc2ccc(NC(=O)Nc3cccc4ccccc34)cc2C1=O` was tested. Which relative growth did it give?
A: Its relative growth is inactive: 1.02.

Q: With `Cc1ccc(S(=O)(=O)N(C)C[C@H]2Oc3ccc(NS(=O)(=O)c4ccccc4)cc3CC(=O)N([C@H](C)CO)C[C@H]2C)cc1` as the compound, how does the relative growth read?
A: The relative growth was inactive: 1.02.

Q: For `C[C@@H]1CCCCO[C@@H](CN(C)C(=O)CCC(F)(F)F)[C@H](C)CN([C@@H](C)CO)C(=O)c2cc(NS(=O)(=O)c3ccc(F)cc3)ccc2O1`, which relative growth is on record?
A: Its relative growth is inactive: 0.978.

Q: How did the relative growth turn out when `C[C@@H]1CN([C@@H](C)CO)C(=O)CCCn2cc(nn2)CO[C@@H]1CN(C)C(=O)Nc1cccc(Oc2ccccn2)c1` was run?
A: The relative growth was inactive: 0.988.

Q: Which relative growth does the source give for `C[C@@H]1CN([C@@H](C)CO)C(=O)Cc2cc(NS(=O)(=O)c3ccc(Cl)cc3)ccc2O[C@@H]1CN(C)C(=O)Nc1ccc(C(F)(F)F)cc1` here?
A: Its relative growth is inactive: 0.976.

Q: With `NC(=O)CCN1C(=O)[C@@H]2[C@@H](C1=O)[C@@H]1C=C[C@@H]2C1` as the compound, how does the relative growth read?
A: Its relative growth is inactive: 1.02.

Q: For `CN(C)CC#Cc1ccc([C@H]2[C@@H](CO)N3C(=O)CN(C(=O)c4cccnc4)C[C@H]23)cc1`, which relative growth is on record?
A: Its relative growth is inactive: 0.998.

Q: Which relative growth does the source give for `C=CCCCCCCCCC(=O)Nc1ccccc1C` here?
A: Its relative growth is inactive: 1.

Q: `CN(C)N(C)C(=O)[C@@]1(Cc2ccccc2)CCCN(C(=O)[C@@H](Cc2c[nH]c3ccccc23)NC(=O)C(C)(C)N)C1` was tested. Which relative growth did it give?
A: The relative growth was inactive: 1.

Q: `Cc1ccc(S(=O)(=O)NCCOc2nc(N(C)C)nc(N3CCOCC3)n2)cc1` was tested. Which relative growth did it give?
A: The relative growth was inactive: 1.01.

Q: With `Cc1noc(C)c1S(=O)(=O)N(C)C[C@H]1OCCCC[C@H](C)Oc2ccc(NS(C)(=O)=O)cc2C(=O)N([C@@H](C)CO)C[C@@H]1C` as the compound, how does the relative growth read?
A: The relative growth was inactive: 0.993.

Q: `C[C@H]1CN([C@@H](C)CO)C(=O)CCCn2nncc2CO[C@@H]1CN(C)S(=O)(=O)c1ccccc1C#N` was tested. Which relative growth did it give?
A: Its relative growth is inactive: 1.

Q: `COc1ccc(NC(=O)CSC2=NC(C)=C(C(=O)Nc3nc4ccccc4s3)[C@H](c3ccco3)C2C#N)cc1` (stereo not given in full) was tested. Which relative growth did it give?
A: The relative growth was inactive: 1.

Q: With `CCN(CC)CCN(Cc1ccc(-c2ccc(C(F)(F)F)cc2)cc1)C(=O)Cn1c(SCc2ccc(F)cc2)nc(=O)c2c1CCC2` as the compound, how does the relative growth read?
A: Its relative growth is inactive: 0.9.

Q: Which relative growth does the source give for `C[C@H]1CN([C@@H](C)CO)C(=O)c2cccc(NC(=O)Nc3ccccc3)c2O[C@@H]1CN(C)Cc1ccc(Oc2ccccc2)cc1` here?
A: Its relative growth is inactive: 0.973.

Q: With `Cn1c(N2CCOCC2)nc2c1c(=O)[nH]c(=O)n2C` as the compound, how does the relative growth read?
A: The relative growth was inactive: 0.994.

Q: How did the relative growth turn out when `CO[C@@H]1CN(C)C(=O)c2cc(NC(=O)Nc3cccc(Cl)c3)ccc2OC[C@@H](C)N(C(=O)Nc2c(C)noc2C)C[C@H]1C` was run?
A: Its relative growth is inactive: 1.05.

Q: Which relative growth does the source give for `CC(C)C(=O)Nc1ccc([N+](=O)[O-])c(C(F)(F)F)c1` here?
A: The relative growth was inactive: 0.866.

Q: With `C[C@H]1CN([C@@H](C)CO)C(=O)c2cc(C#CC3(O)CCCC3)cnc2O[C@@H]1CN(C)C(=O)C1CCOCC1` as the compound, how does the relative growth read?
A: Its relative growth is inactive: 0.975.

Q: How did the relative growth turn out when `O=C(C[C@@H]1CC[C@@H](NC(=O)c2ccc(F)cc2)[C@@H](CO)O1)NCc1ccncn1` was run?
A: Its relative growth is inactive: 0.991.

Q: With `Cc1ccccc1N1CCN(S(=O)(=O)C[C@]23CC[C@H](C[C@@H]2NC(=O)[C@@H](N)CCS(C)(=O)=O)C3(C)C)CC1` as the compound, how does the relative growth read?
A: The relative growth was inactive: 1.01.

Q: Which relative growth does the source give for `C[C@@H]1CN([C@@H](C)CO)C(=O)Cc2cc(NC(=O)Nc3ccc(F)cc3)ccc2O[C@H]1CN(C)Cc1ccc(C(F)(F)F)cc1` here?
A: The relative growth was inactive: 1.04.

Q: With `CO[C@@H]1CN(C)C(=O)c2cc(NC(=O)NC3CCCCC3)ccc2OC[C@H](C)N(CCc2ccccc2)C[C@@H]1C` as the compound, how does the relative growth read?
A: The relative growth was inactive: 1.02.

Q: `Cc1noc(C)c1S(=O)(=O)Nc1ccc2c(c1)C(=O)N([C@@H](C)CO)C[C@@H](C)[C@@H](CN(C)Cc1ccc(C(=O)Nc3ccccc3N)cc1)OCCCC[C@H](C)O2` was tested. Which relative growth did it give?
A: Its relative growth is inactive: 1.03.

Q: `CCO[C@H]1OC(C(=O)N2CCN(Cc3ccc4c(c3)OCO4)CC2)=C[C@@H](c2ccc(C(F)(F)F)cc2)[C@@H]1CCCOC(=O)NCCCCCC(=O)NO` was tested. Which relative growth did it give?
A: Its relative growth is inactive: 1.02.

Q: For `COCCNC(=O)C[C@@H]1C[C@@H]2c3cc(NC(=O)Nc4ccc(C(F)(F)F)cc4)ccc3O[C@@H]2[C@@H](CO)O1`, which relative growth is on record?
A: Its relative growth is inactive: 0.946.

Q: How did the relative growth turn out when `C[C@H](CO)N1C[C@H](C)[C@H](CN(C)C(=O)Nc2ccccc2)Oc2ccc(NS(C)(=O)=O)cc2C1=O` was run?
A: The relative growth was inactive: 0.977.

Q: Which relative growth does the source give for `O=C(C[C@@H]1CC[C@@H]2[C@H](COC[C@H](O)CN2C(=O)Nc2cccc(F)c2)O1)NCc1ccccc1Cl` here?
A: The relative growth was inactive: 0.929.

Q: With `Cn1c(=O)n2n(c1=O)[C@H](C1CC1)C=C1CN3[C@@H]([C@H](CCn4cc(-c5cccc(/C=C/C(=O)NO)c5)nn4)OC(=O)[C@@H]3Cc3ccccc3)[C@@H]12` as the compound, how does the relative growth read?
A: The relative growth was inactive: 1.06.

Q: `COCC(=O)N1C[C@H](C)[C@@H](OC)CN(C)C(=O)c2cc(NC(=O)c3ccc(OC)cc3)ccc2OC[C@@H]1C` was tested. Which relative growth did it give?
A: Its relative growth is inactive: 1.06.

Q: With `C[C@@H]1CN([C@@H](C)CO)C(=O)Cc2cc(NS(=O)(=O)c3cccs3)ccc2O[C@@H]1CN(C)C(=O)Nc1cccc2ccccc12` as the compound, how does the relative growth read?
A: The relative growth was inactive: 0.984.

Q: For `O=C(C[C@@H]1CC[C@H]2[C@@H](COC[C@H](O)CN2S(=O)(=O)c2ccccc2)O1)NCc1ccc(-c2ccccc2)cc1`, which relative growth is on record?
A: The relative growth was inactive: 0.968.

Q: `C[C@@H]1CN([C@H](C)CO)C(=O)c2c(c3ccccc3n2C)-c2ccccc2CO[C@H]1CN(C)C(=O)N[C@H](C)c1ccccc1` was tested. Which relative growth did it give?
A: Its relative growth is inactive: 1.

Q: Which relative growth does the source give for `C[C@@H]1CCCCO[C@H](CN(C)CC2CCCCC2)[C@H](C)CN([C@@H](C)CO)C(=O)c2cc(NC(=O)Nc3ccc(C(F)(F)F)cc3)ccc2O1` here?
A: The relative growth was inactive: 1.02.

Q: With `C[C@@H]1CN([C@H](C)CO)C(=O)c2cc(NC(=O)Nc3ccccc3)ccc2O[C@@H]1CN(C)S(C)(=O)=O` as the compound, how does the relative growth read?
A: The relative growth was inactive: 1.02.

Q: With `COc1ccc(NC(=O)Nc2ccc3c(c2)C(=O)N([C@H](C)CO)C[C@@H](C)[C@@H](CN(C)Cc2ccccc2)OCCCC[C@H](C)O3)cc1` as the compound, how does the relative growth read?
A: Its relative growth is inactive: 1.

Q: `C[C@@H]1CN([C@H](C)CO)C(=O)c2cc(C#CCc3ccccc3)cnc2O[C@@H]1CN(C)C(=O)Cc1cccnc1` was tested. Which relative growth did it give?
A: The relative growth was inactive: 0.998.

Q: How did the relative growth turn out when `CSc1n[nH]c2nc(=O)cc(N)n12` was run?
A: Its relative growth is inactive: 1.02.

Q: With `Cc1ccc(S(=O)(=O)NCC[C@@H]2CC[C@H](NS(=O)(=O)c3ccccc3Cl)[C@H](CO)O2)cc1` as the compound, how does the relative growth read?
A: Its relative growth is inactive: 0.938.

Q: `O=C(c1cc2n(n1)CCCO2)N1CC(O)C1` was tested. Which relative growth did it give?
A: Its relative growth is inactive: 0.989.

Q: How did the relative growth turn out when `Cc1ccc(S(=O)(=O)Nc2cccc3c2O[C@@H](CN(C)C(=O)NC(C)C)[C@H](C)CN([C@@H](C)CO)C3=O)cc1` was run?
A: Its relative growth is inactive: 0.859.

Q: With `Cc1ccc(S(=O)(=O)Nc2ccc3c(c2)C(=O)N([C@@H](C)CO)C[C@@H](C)[C@@H](CN(C)C(=O)Nc2c(C)noc2C)OCCCC[C@H](C)O3)cc1` as the compound, how does the relative growth read?
A: The relative growth was inactive: 0.983.

Q: For `CC(=O)Oc1cc2c(s1)CCN(C(C(=O)C1CC1)c1ccccc1F)C2` (stereo not given), which relative growth is on record?
A: Its relative growth is inactive: 1.05.

Q: How did the relative growth turn out when `COc1ccc(S(=O)(=O)N(C)C[C@@H]2Oc3cc(-c4ccccc4OC)ccc3S(=O)(=O)N([C@H](C)CO)C[C@@H]2C)cc1` was run?
A: The relative growth was inactive: 1.01.

Q: How did the relative growth turn out when `COc1ccc(NC(=O)N(C)C[C@@H]2OCCCC[C@@H](C)Oc3ccc(NC(=O)NC(C)C)cc3C(=O)N([C@H](C)CO)C[C@H]2C)cc1` was run?
A: The relative growth was inactive: 1.

Q: With `C[C@@H]1CN([C@@H](C)CO)C(=O)c2cc(NC(=O)Nc3ccc4c(c3)OCO4)ccc2O[C@@H](C)CCCCO[C@@H]1CN(C)C(=O)NC1CCCCC1` as the compound, how does the relative growth read?
A: Its relative growth is inactive: 1.04.

Q: For `C[C@H]1CN([C@@H](C)CO)S(=O)(=O)c2ccc(C#Cc3ccc(F)cc3)cc2O[C@H]1CN(C)CC1CC1`, which relative growth is on record?
A: The relative growth was inactive: 0.936.
